From article PMC4336329 (PLoS ONE, 2015)
Among all 310,000 compounds or so, about 14,000 (4.5%) showed an effect of 50% or more. Effects have a minus sign here. This is one part of the list.

target: human ether-à-go-go-related gene (hERG) potassium channel (human, UniProt Q12809); assay: primary screen, population patch clamp on CHO cells stably expressing hERG
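Further: peak tail current of the secondary pulse compared with the same well before compound.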

Sequence of human ether-à-go-go-related gene (hERG) potassium channel (Q12809 whole entry, looked up): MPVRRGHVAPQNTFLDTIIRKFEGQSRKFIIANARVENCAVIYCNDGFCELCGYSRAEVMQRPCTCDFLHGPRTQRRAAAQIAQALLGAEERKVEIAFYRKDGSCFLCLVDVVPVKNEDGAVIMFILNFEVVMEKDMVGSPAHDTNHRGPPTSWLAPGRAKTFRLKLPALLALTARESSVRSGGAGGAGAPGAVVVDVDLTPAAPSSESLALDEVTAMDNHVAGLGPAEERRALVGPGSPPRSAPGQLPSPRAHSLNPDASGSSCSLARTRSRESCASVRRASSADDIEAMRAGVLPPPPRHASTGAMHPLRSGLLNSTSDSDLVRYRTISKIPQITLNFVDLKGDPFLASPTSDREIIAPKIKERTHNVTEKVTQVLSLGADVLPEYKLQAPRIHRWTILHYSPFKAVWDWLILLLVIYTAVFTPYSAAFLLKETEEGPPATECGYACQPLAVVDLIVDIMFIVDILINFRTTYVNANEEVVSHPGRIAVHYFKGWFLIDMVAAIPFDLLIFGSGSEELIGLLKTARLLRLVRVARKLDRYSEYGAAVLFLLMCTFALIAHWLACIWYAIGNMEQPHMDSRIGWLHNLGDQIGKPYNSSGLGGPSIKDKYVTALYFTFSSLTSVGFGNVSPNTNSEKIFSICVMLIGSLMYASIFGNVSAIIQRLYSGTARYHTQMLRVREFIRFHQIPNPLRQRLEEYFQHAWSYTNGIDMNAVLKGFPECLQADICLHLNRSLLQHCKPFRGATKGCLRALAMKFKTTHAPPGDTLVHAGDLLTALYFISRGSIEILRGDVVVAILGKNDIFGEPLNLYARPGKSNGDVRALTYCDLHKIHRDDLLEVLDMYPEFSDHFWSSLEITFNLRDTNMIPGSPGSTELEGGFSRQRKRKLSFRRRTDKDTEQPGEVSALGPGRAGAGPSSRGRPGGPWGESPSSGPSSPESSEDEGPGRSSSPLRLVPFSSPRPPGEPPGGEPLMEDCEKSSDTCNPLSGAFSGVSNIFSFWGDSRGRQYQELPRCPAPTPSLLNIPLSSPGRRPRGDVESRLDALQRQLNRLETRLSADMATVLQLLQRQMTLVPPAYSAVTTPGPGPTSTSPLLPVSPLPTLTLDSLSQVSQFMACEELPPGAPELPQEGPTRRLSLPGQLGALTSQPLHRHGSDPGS

Row | Structure (SMILES) | hERG current change (%, negative = inhibition) at 10uM
1 | COc1ccc(C(=O)Nc2ccc(NC(=O)C3CC3)nc2)cc1 | 12.1%
2 | O=C(NC1CCCc2ccccc21)C1CCN(c2nnc(-n3cccc3)s2)CC1 (centres unmarked) | -6.66%
3 | O=C(CNS(=O)(=O)c1ccc(Br)cc1)N1CCN(c2ccc(F)cc2)CC1 | -56.5%
4 | CC(C)Cn1c(=S)[nH]c2cc(C(=O)O)ccc2c1=O | 7.25%
5 | c1ccc(Cn2cc(CN3CCCO3)c(-c3ccc4c(c3)OCO4)n2)cc1 | 15.9%
6 | CC1CC(C)CN(C(=O)Cn2c(=O)c3cccn3c3cccnc32)C1 (centres unmarked) | -4.56%
7 | Cc1ccc(Cl)cc1NC(=O)COC(=O)C12CC3CC(CC(C3)C1)C2 | -5.9%
8 | Cc1cccc(N(CC(=O)Nc2c(C)n(C)n(-c3ccccc3)c2=O)S(C)(=O)=O)c1C | -0.4%
9 | COc1ccc(-n2c(-c3ccco3)nc3c(cnn3-c3ccc(C)cc3)c2=O)cc1 | 1.88%
10 | Cc1cc(=O)[nH]c(N/N=C/c2ccc(O)c(O)c2)n1 | 17.5%
11 | Cc1ccc2c(c1)N(CC(=O)N1CCCc3ccccc31)C(=O)CO2 | -8.16%
12 | CN1CCN(C2Cc3cc(F)ccc3Sc3ccc(Cl)cc32)CC1.O=C(O)/C=C\C(=O)O (centres unmarked) | -44.8%
13 | CCOc1ccc(C(=S)N2CCCC2)c(OCC)c1 | 6.17%
14 | Cc1ccc(Nc2c(-c3ccc(C)o3)nc3cnccn23)cc1 | 4.98%
15 | O=C1COc2ccc(C(=O)COC(=O)c3cc(S(=O)(=O)N4CCOCC4)ccc3F)cc2N1 | -13.3%
16 | CCCCSc1nnc(NC(=O)CCc2ccccc2)s1 | -0.77%
17 | COc1ccc(CNC(=O)COC(=O)CCOc2ccc(C)cc2)cc1 | 19%
18 | O=c1cc(-c2ccccc2O)nc(-c2ccccc2)[nH]1 | 23.7%
19 | COc1ccc(C2CC(C(F)(F)F)n3nc(C(=O)NCCN4CCOCC4)cc3N2)cc1 (centres unmarked) | -11.5%
20 | O=C(NCc1ccco1)c1sc2cc(Cl)ccc2c1Cl | 14.5%
21 | Cl.NCCCCNCCCN | 16.4%
22 | C/C(O)=C(\C#N)c1nc2ccccc2[nH]1 | -1.58%

Row | Structure (SMILES) | hERG current change (%, negative = inhibition) at 10uM
23 | Cc1ccccc1NC(=S)NC12CN3CN(CN(C3)C1)C2 | 13.4%
24 | CCCCN(C(=O)c1ccc2c(c1)OCCO2)c1c(N)n(CC(C)C)c(=O)[nH]c1=O | -11.7%
25 | Cc1ccccc1NC(=O)c1sc(Cl)nc1C | 9.95%
26 | NC(=S)Nc1cc(Cl)ccc1Cl | -7.01%
27 | O=C1NC(=Nc2ccccc2Cl)S/C1=C\c1cccc([N+](=O)[O-])c1 | -0.316%
28 | COc1cc(C(=O)Nc2cccc(-c3nc4cc(C)ccc4o3)c2C)cc(OC)c1OC | 9.04%
29 | CSc1nc2ccccc2nc1N(C)S(=O)(=O)c1ccc(C)cc1 | 17.4%
30 | CC1(C)NC(=O)N(CCCC(=O)Nc2ccc(C(F)(F)F)cc2)C1=O | -16.9%
31 | CC(C)OC(=O)c1c(NC(=O)c2cnn3c2NC(c2ccccc2)CC3C(F)(F)F)sc2c1CCCC2 (centres unmarked) | 0.121%
32 | CC(=O)Oc1ccc(C(=O)[C@H]2[C@H]3C(=O)N(c4ccccc4)C(=O)[C@H]3[C@@H]3C=CC=NN32)cc1 | 8.93%
33 | COC(=O)C(O)(CC(=O)c1ccc(OC)cc1)C(F)(F)F (centres unmarked) | 9.08%
34 | O=C(CN(C(=O)Cn1nnc(-c2ccc(F)cc2)n1)c1cnc2ccccc2c1)NCC1CCCO1 (centres unmarked) | -24.9%
35 | Cl.O=C(COc1ccc(F)cc1)OCCN1CCOCC1 | 12%
36 | COc1cccc(NC(=O)N2CCN(c3cccc(C)c3)C(C)C2)c1 (centres unmarked) | -16%
37 | Cc1cc(C)c(C)c(S(=O)(=O)N2CCC(C(=O)NCC(c3ccccc3)N(C)C)CC2)c1C (centres unmarked) | -48.9%
38 | CSc1ccc(CN(C)CC(=O)Nc2ccccc2Br)cc1 | 17.3%
39 | COC(=O)COc1cc(C)cc2oc(=O)c3c(c12)CCCC3 | -29.7%
40 | CCCc1cc(CN(C)C(=O)CC2C(=O)NCCN2Cc2ccccc2C)[nH]n1 (centres unmarked) | 0.823%
41 | Cc1ccc2oc(-c3cccc(NC(=S)NC(=O)c4cccs4)c3)nc2c1 | 12.3%
42 | CC(C)OC(=O)Nc1ccc(Oc2c(F)c(F)c(F)c(F)c2F)cc1 | -9.33%
43 | Cc1ccc(C(=O)NCc2ccc3c(c2)OCO3)cc1S(=O)(=O)N1CCOCC1 | -27.8%
44 | Cc1nc2ccccc2c2oc(C(=O)NCC3CCCO3)cc12 (centres unmarked) | -14.2%

Row | Structure (SMILES) | hERG current change (%, negative = inhibition) at 10uM
45 | O=C(NC1CCN(C(=O)NC2CCCCC2)CC1)c1ccco1 | 10.8%
46 | CN(C)c1nc(N)nc(/C(C#N)=C/C2CC3C=CC2C3)n1 (centres unmarked) | 1.04%
47 | O=C(COC(=O)c1ccc(NS(=O)(=O)c2ccc(F)c(F)c2)cc1)NCC1CCCO1 (centres unmarked) | -1.59%
48 | O=C(NCCCN1CCCC1)c1cc2c(Cl)nc3ccccc3c2s1 | -13.9%
49 | O=[N+]([O-])c1cc(S(=O)(=O)Nc2cccc(C(F)(F)F)c2)ccc1-n1nnc2ccccc21 | 0.81%
50 | COC(=O)c1c(NC(=O)c2ccn(C)n2)sc2c1CCC2 | 20%
51 | CC1CCc2c(c3ccccc3n2C(=O)CCl)C1 (centres unmarked) | 14.2%
52 | COc1ccc(NC(=O)c2c(NC(=O)CNCc3ccco3)sc3c2CCC3)cc1 | 17.8%
53 | CS/C(=C\[N+](=O)[O-])Nc1ccc(F)cc1 | 15.7%
54 | CCCCn1cnc2c(c1=O)c1nc3ccccc3nc1n2Cc1ccc2c(c1)OCO2 | 24.1%
55 | CC(=O)Nc1cccc(-c2csc(Nc3ccccn3)n2)c1 | 4.58%
56 | CSc1nc2nc3c(cc2c(=O)[nH]1)C(O)Oc1ccc(C)cc1-3 (centres unmarked) | -1.1%
57 | Clc1ccc2[nH]c3c(NCC4CCCO4)ncnc3c2c1 (centres unmarked) | -16.2%
58 | O=C(CSc1cccc[n+]1[O-])c1cc2ccccc2o1 | -4.46%
59 | CCCCOc1ccc(Nc2nc(C)cc(C)c2C#N)cc1 | -20.1%
60 | CCOC(=O)c1ccc(NC(=S)Nc2ccc3[nH]c(=O)[nH]c3c2)cc1 | 1.23%
61 | Cn1cc(C(=O)N2CCN(c3ccccc3)CC2)c(=O)c2cc(S(=O)(=O)N3CCOCC3)ccc21 | 8.44%
62 | Cc1nc(S/C(=C/c2ccc(-c3cc(Cl)ccc3C)o2)C(=O)O)n[nH]1 | 8.16%
63 | CCSc1nnc([C@H](C)NC(=O)OC(C)(C)C)o1 | -7.7%
64 | COc1cc(OC)c(N(C)S(=O)(=O)c2cccc(C(=O)OCC(=O)c3c[nH]c4ccccc34)c2)cc1Cl | 10.5%
65 | O=C(c1cccn2c(=O)c3cc(Cl)ccc3nc12)N1CCOCC1 | -52.9%
66 | Cc1ccc(C(=O)OCC(=O)Nc2c(Cl)cc(S(N)(=O)=O)cc2Cl)o1 | 11.2%

Row | Structure (SMILES) | hERG current change (%, negative = inhibition) at 10uM
67 | O=C(O)c1ccc2c(=O)n3c(nc2c1)/C(=C/c1ccc(F)cc1)CC3 | 19.7%
68 | Cc1ccc(C(=O)OCCOc2cccc(Cl)c2)cc1S(=O)(=O)N1CCOCC1 | -12.2%
69 | Cn1c2ccccc2c2c(C(=O)N3CCN(c4ccccn4)CC3)cn(C3CCCC3)c(=O)c21 | -39.2%
70 | Cc1cc(NC(=O)CSCC(=O)OC(C)C(=O)N(C)Cc2ccccc2)no1 (centres unmarked) | 1.1%
71 | O=C1c2ccccc2C(=O)N1CCCCN(C(=O)c1ccc(Cl)s1)c1ccc(Cl)cc1 | 8.41%
72 | Cc1ccc(Nc2cc(C)nn2-c2nc(C)cc(=O)[nH]2)cc1 | 3%
73 | O=C(Nc1ccccc1O)c1cc(S(=O)(=O)N2CCOCC2)ccc1Cl | -5.14%
74 | Cc1ccc(-n2nnnc2SCC(=O)Nc2ccc(N3CCN(C)CC3)cc2)c(C)c1 | -21%
75 | CC(C)[C@H](NC(=O)N1c2ccccc2NC(=O)[C@@H]1C(C)C)C(=O)N[C@@H](Cc1c[nH]c2ccccc12)C(=O)O | 3.11%
76 | COc1cccc(OC)c1OCc1cc(C2C3CCCC=C3C(C#N)=C(N)C2(C#N)C#N)c(C)cc1C (centres unmarked) | 1.6%
77 | CCC(C)CCN1C(N(C)C)=NC[C@@H]1CC(C)C (some centres unmarked) | -11%
78 | Cc1ccc(C)c(C(=O)C(C)Sc2nc3nn(-c4ccccc4)c(=O)c-3c3n2CCCCC3)c1 (centres unmarked) | 4.97%
79 | CC(=O)c1ccc(N2C(=NC(=O)C3CCCO3)SC3CS(=O)(=O)CC32)cc1 (centres unmarked) | -39.7%
80 | Cc1ccc(NC(=O)c2ccc(Cl)c(S(=O)(=O)N3CCCCCC3)c2)nc1 | -57.9%
81 | CC(C)COC(=O)c1ccccc1N1C(=O)C2C3CCC(C3)C2C1=O (centres unmarked) | 9.64%
82 | Oc1ccc(C[C@H]2CNC(=S)N2CCc2cc(C(F)(F)F)cc(C(F)(F)F)c2)cc1 | -8.02%
83 | COc1ccc(C(=O)NCCc2ccccc2)cc1OC | 7.71%
84 | COC(=O)c1cc(NCc2ccccc2F)ccc1N1CCOCC1 | -19.4%
85 | Cc1ccc(S(=O)(=O)N2CCCC2C(=O)n2nc(C)cc2C)cc1 (centres unmarked) | 1.87%
86 | COc1cccc(-c2ccc(NC(=O)C3CCCN(Cc4ccco4)C3)cc2)c1 (centres unmarked) | 6.02%
